Measured values reported in paper PMC4336329 (PLoS ONE, 2015).
Hit rate of the full screen: of about 310,000 compounds, about 2,200 (0.71%) showed an effect of 50% or more. The effect is printed as a negative number. This is one part of the list.

molecular target: human ether-à-go-go-related gene (hERG) potassium channel (human, UniProt Q12809); assay: primary screen, population patch clamp on CHO cells stably expressing hERG
Sequence (Q12809 whole entry, looked up): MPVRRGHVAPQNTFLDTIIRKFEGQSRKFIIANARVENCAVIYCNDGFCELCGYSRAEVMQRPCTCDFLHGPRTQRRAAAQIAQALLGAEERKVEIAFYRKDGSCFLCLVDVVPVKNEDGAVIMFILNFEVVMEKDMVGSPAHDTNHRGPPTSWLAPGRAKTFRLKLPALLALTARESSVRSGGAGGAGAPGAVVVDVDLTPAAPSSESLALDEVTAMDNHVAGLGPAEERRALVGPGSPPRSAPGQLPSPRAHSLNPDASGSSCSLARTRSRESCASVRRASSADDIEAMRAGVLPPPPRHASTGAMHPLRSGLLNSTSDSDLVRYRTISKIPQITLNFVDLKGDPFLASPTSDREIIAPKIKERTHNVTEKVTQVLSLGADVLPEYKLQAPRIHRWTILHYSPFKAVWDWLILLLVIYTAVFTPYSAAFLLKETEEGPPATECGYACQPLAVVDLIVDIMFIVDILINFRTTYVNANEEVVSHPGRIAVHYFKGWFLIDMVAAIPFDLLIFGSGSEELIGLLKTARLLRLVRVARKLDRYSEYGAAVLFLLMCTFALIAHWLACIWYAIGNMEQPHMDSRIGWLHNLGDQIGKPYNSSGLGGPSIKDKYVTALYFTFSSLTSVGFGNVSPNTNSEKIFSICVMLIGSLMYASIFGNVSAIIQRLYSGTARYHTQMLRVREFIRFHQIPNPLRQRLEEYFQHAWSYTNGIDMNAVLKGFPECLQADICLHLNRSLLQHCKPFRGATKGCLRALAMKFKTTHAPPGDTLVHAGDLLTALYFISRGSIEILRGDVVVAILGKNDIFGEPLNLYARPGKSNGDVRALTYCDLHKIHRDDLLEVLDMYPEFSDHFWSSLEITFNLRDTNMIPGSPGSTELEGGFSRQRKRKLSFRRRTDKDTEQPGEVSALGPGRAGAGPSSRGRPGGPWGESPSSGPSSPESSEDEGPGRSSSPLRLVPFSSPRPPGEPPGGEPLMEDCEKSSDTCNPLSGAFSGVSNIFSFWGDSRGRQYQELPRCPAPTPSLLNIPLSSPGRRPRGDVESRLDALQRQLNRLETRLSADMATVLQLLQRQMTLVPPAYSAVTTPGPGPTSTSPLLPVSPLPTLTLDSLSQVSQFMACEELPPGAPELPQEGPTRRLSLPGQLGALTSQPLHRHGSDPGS

| SMILES | hERG current change (%, negative = inhibition) at 1uM |
| --- | --- |
| CC(C)(C)S(=O)(=O)c1cnc(N2CCCCC2)nc1N | 14.9% |
| COc1ccc([C@H]2CC(=O)C=C(c3ccc4[nH]ccc4c3)C2)cc1OC | 13.1% |
| CC(=O)N1N=C(c2cccc([N+](=O)[O-])c2)OC1c1cccc(Br)c1 (centres unmarked) | 8.07% |
| COC(=O)C1=C(c2cccc(C#N)c2)C[C@@H]2CC[C@H]1N2C(=O)NCc1ccco1 | -3.94% |
| CNC(=O)NC(=O)COC(=O)CCc1nc(=O)c2ccccc2n1C | 7.53% |
| CN(C(=O)COC(=O)/C=C/c1ccc2ccccc2n1)c1c(N)n(Cc2ccccc2)c(=O)[nH]c1=O | 10.7% |
| CN(C)c1ccc(C#Cc2ccc3cc(CCO)oc(=O)c3c2)cc1 | 14.2% |
| CS(=O)(=O)N(CC(=O)N1CCN(c2ccccc2F)CC1)c1ccc2c(c1)OCCO2 | -5.62% |
| Cc1cnccc1CN(C)Cc1nc(Cc2ccccc2Cl)no1 | 17.4% |
| C=CCN1C(=O)c2ccc(C(=O)NCC(=O)Nc3c(C)cc(C)cc3C)cc2C1=O | 15.7% |
| Cc1ccc(-c2nc(-c3ccncc3)no2)cc1 | 13.9% |
| O=[N+]([O-])c1cc(Br)c2nsnc2c1N1CCOCC1 | 12.7% |
| CN(C)CCCN1C(=O)C(=O)/C(=C(/O)c2ccncc2)C1c1ccccc1 (centres unmarked) | 10.8% |
| Cc1ccc(CNC(=O)[C@H](C)[C@H]2C[C@]2(C)[C@H](NC(=O)OCc2ccccc2)c2ccccc2)o1 | 15.6% |
| Cc1cc2c(cc1S(=O)(=O)N1CCN(c3cccc(C)c3C)CC1)OCC(=O)N2 | 7.13% |
| Cc1nc2cc(CC(=O)O)ccc2o1 | 4.81% |
| N/C(=N\N=C\c1cccc([N+](=O)[O-])c1)c1nonc1N | 6.89% |
| COC(=O)C(C)Sc1nc2c(c(=O)[nH]c(=O)n2C)n1CCC(C)C (centres unmarked) | 4.51% |
| Cc1ccc(CCCOC(=O)C[N+]2(C)CCCC2)cc1.[I-] | 12.2% |
| CCS(=O)(=O)CCSC(=N)N.Cl | -35.5% |
| COc1cccc(NC(=O)C(NCCC(C)C)c2ccccc2)c1 (centres unmarked) | 16.6% |
| CC(C)c1nc(N2CCOCC2)c(C#N)c2c1COC(C)(C)C2 | 10.7% |

| SMILES | hERG current change (%, negative = inhibition) at 1uM |
| --- | --- |
| COc1ccccc1CNC(=O)COC(=O)c1cccc(S(=O)(=O)N2CCCCC2)c1 | 9.24% |
| Cc1ccccc1NS(=O)(=O)c1ccc2c3c(cccc13)C(=O)N2C | -0.791% |
| COC(=O)c1[nH]c2ccc(F)cc2c1NS(=O)(=O)c1ccc(OC)cc1 | 6.54% |
| Cl.c1cncc(CNc2ncnc3sc4c(c23)CCC4)c1 | -2.84% |
| CC(C)CNC(=O)c1cc(-c2ccc3c(c2)OCO3)on1 | 13.6% |
| COc1ccc(C(=O)N2CCC3(CC2)OCCO3)cc1 | 18.4% |
| CCOC(=O)Nc1ccc2c(c1)N(C(=O)CN1CCN(C)CC1)c1ccccc1S2.Cl | -37.7% |
| CC1CN(c2ccc([N+](=O)[O-])c(NCCOc3ccccc3)c2)CC(C)N1 (centres unmarked) | 6.97% |
| CCC(C)(C(=O)NC1CCCC1)N(CC1CCCO1)C(=O)c1ccc2c(c1)OCO2 (centres unmarked) | 1.3% |
| CCCOC(=O)c1ccc(NC(=O)C2CCCO2)cc1 (centres unmarked) | 11.2% |
| COC(=O)[C@@]1(Cc2ccc(OC)cc2)[C@H]2c3cc(C(=O)N(C)C)n(Cc4ccc(OC(F)(F)F)cc4)c3C[C@H]2CN1C(=O)c1ccccc1 | 8.08% |
| COCc1cc(OC)nc(-c2csc(C)n2)n1 | 15.9% |
| CSc1ccccc1NC(=O)CN(C)CC(=O)Nc1ccccc1C(F)(F)F | 5.44% |
| FC(F)(F)c1ccccc1NC(=S)Nn1cnnc1 | 9.83% |
| CCC(C)(C)n1nnnc1C(c1ccc(C)cc1)N1CCN(Cc2ccc3c(c2)OCO3)CC1 (centres unmarked) | 3.3% |
| Cc1ccc(-c2ocnc2C(=O)Nc2ccccc2C(=O)N2CCCC2)cc1 | -0.065% |
| O=c1c(Br)c(N2CCCCC2)cnn1-c1ccccc1 | 7.77% |
| CCC(=O)Nc1ccc(C(=O)COC(=O)CCN2C(=O)C3CC=CCC3C2=O)cc1 (centres unmarked) | 15.3% |
| O=C(NCC1CCCN1S(=O)(=O)c1cccs1)c1ccc(F)c(F)c1 (centres unmarked) | 8.45% |
| CCNC(=O)C(=O)Nc1ccc(OC)c(Cl)c1 | 7.31% |
| CCOc1ccc(-n2ccnc2SCC(=O)Nc2cc(C)on2)cc1 | 1.88% |
| Cc1ccc(-n2ncc3c2CC(C)(C)CC3NC(=O)CCc2c(C)noc2C)cc1 (centres unmarked) | -11% |
